# Source: PubChem BioAssay AID1768 (National Center for Advancing Translational Sciences (NCATS), 2009)
# Screen size: about 270,000 compounds; about 620 (0.23%) were called active. The inconclusive results got no clear call from the source; some entries with a clear call stand among them for comparison. Calls follow the shape of the dose curve; as a rule, active = well fitted inhibition curve with a large enough effect in the polarisation, with a control signal flat (not every such curve was filed as active); inconclusive = small, poorly fitted or top-dose-only effect, or effect the other way, or a change in a side signal; inactive = no such curve, though single readings can be large or run the other way; the % refers to the polarisation. Where the call is inconclusive, the potency comes from a doubtful curve fit. A note “side channel” means that the fit belongs to a control or component signal, not to the main read-out.
# Target: Menin (Homo sapiens) (UniProt O00255)
# Assay: qHTS Assay for Inhibitors Targeting the Menin-MLL Interaction in MLL Related Leukemias: Competition With Texas Red Labeled MLL-derived Mutant Peptide; as to FP activity change, negative = inhibition: % of control where 0% means no effect
# Settings: fluorescence polarization; FP activity change, negative = inhibition: at 61.6 µM (top of the series)
# Potency is read from the fitted curve at half-maximal effect; tags tell the direction and shape of the fitted curve or compound fluorescence and quenching.
# UniProt O00255, sequence (O00255 whole entry, looked up): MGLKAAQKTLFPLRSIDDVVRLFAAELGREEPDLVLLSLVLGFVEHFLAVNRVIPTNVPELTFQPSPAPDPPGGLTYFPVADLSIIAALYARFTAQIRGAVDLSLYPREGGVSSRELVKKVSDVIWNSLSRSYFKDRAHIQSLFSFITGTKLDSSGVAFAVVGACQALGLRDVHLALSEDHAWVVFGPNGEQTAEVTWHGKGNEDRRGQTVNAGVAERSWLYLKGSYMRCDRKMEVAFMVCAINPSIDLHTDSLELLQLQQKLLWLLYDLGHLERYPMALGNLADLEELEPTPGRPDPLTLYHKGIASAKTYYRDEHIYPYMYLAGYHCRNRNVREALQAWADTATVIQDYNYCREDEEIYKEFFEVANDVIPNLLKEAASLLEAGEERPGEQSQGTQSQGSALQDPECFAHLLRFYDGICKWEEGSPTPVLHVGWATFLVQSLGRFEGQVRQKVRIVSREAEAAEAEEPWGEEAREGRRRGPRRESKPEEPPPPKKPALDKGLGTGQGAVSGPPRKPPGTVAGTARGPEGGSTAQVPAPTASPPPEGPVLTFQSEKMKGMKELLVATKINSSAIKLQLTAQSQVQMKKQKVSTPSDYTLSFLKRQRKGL
Compound,Potency,"FP activity change, negative = inhibition"
COc1cc(C(Nc2ccc3c(c2)OCO3)C(=O)NC2CCCCC2)cc(OC)c1OC (stereo not drawn),"inconclusive: 39.8 µM [inhibitor, single point]",–
CCOC(=O)CC1CCCCN1Cc1nc(-c2ccc(F)c(OC)c2)oc1C (stereo not drawn),"inconclusive: 0.708 µM [inhibitor, full curve]",–
O=C(COc1ccccc1[N+](=O)[O-])NNC(=O)Nc1cccc2ccccc12,"inconclusive: 28.2 µM [quencher, side channel, single point]",–
O=C(NNC(=O)c1ccc2ccccc2c1O)c1cccs1,"inconclusive: 31.6 µM [quencher, side channel, single point]",–
Cc1ccc(S(=O)(=O)N2CCN(c3ccccc3)CC2)cc1C(N)=O,"inconclusive: 39.8 µM [inhibitor, single point]",–
O=C(Cc1nnc(NC(=O)Nc2ccc(Cl)cc2)s1)NCc1ccccc1,"inconclusive: 10 µM [inhibitor, partial curve]",–
COc1cccc(OCC(=O)Nc2ccncc2)c1,"inconclusive: 14.1 µM [inhibitor, partial curve]",–
c1ccc(C2=NN(c3ccccc3)C(c3ccco3)C2)cc1 (stereo not drawn),"inconclusive: 7.94 µM [quencher, side channel, partial curve]",–
O=C1CCCC2=C1C(c1ccco1)Nc1ccc(C(=O)c3ccccc3)cc1N2 (stereo not drawn),"inconclusive: 3.98 µM [quencher, side channel, single point]",–
COc1ccc(C2=C(Nc3ccc(F)cc3)c3ccccc3C2=O)cc1,"inconclusive: 15.8 µM [quencher, side channel, partial curve]",–
CCCC[C@H]1CCCO[C@@](C(=O)NCCN2CCOCC2)(C(F)(F)F)C1,–,inactive: -18.2%
COc1ccccc1N1CCN(C(=O)c2cc(=O)c3c(C)cc(C)cc3o2)CC1,"inconclusive: 3.16 µM [inhibitor, partial curve]",–
Cc1ccc(C)c(NC(=O)c2cc(-c3ccccc3O)n[nH]2)c1,"inconclusive: 39.8 µM [fluorescent, side channel, single point]",–
Cn1c2ccccc2c(=O)c2ccc(C#Cc3ccc(N)cc3)cc21,"inconclusive: 7.94 µM [quencher, side channel, full curve]",–
CCN(CC)c1ccc2cc(-c3nnc(-c4ccncc4)o3)c(=O)oc2c1,–,inactive: -23.6%
COC(=O)c1ccc(COC(=O)CCc2nc(-c3ccccc3)c(-c3ccccc3)o2)cc1,"inconclusive: 5.62 µM [fluorescent, side channel, partial curve]",–
Cc1nc2ccc(NS(=O)(=O)c3ccc(F)c(C)c3)cc2[nH]1,"inconclusive: 3.16 µM [inhibitor, single point]",–
CCOC(=O)C1=C(CSCC(=O)OC)NC(=O)NC1c1cc(C)ccc1C (stereo not drawn),"inconclusive: 3.55 µM [inhibitor, partial curve]",–
CC1=C(C(=O)Nc2ccccc2)C(c2ccco2)C(C#N)=C(SCc2ccccc2)N1 (stereo not drawn),"inconclusive: 17.8 µM [inhibitor, partial curve]",–
COc1cc(CNc2ccc3[nH]c(=O)[nH]c3c2)cc(Br)c1OCC(=O)NC(C)(C)C,–,inactive: 0.221%

Compound,Potency,"FP activity change, negative = inhibition"
CCOC(=O)/C=C/C(=O)Nc1ccc(S(=O)(=O)N(C)c2ccccc2)cc1,"inconclusive: 31.6 µM [quencher, side channel, single point]",–
COc1ccc2c(c1)CC/C2=N\OC(=O)c1ccccc1C,"inconclusive: 11.2 µM [fluorescent, side channel, partial curve]",–
CCN(CC)c1ccc(NC(=O)Nc2cccc(C(C)=O)c2)cc1,"inconclusive: 20 µM [quencher, side channel, single point]",–
Cc1ccc(N(CC(=O)N/N=C/c2cccs2)S(C)(=O)=O)cc1Cl,"inconclusive: 39.8 µM [quencher, side channel, single point]",–
Cc1cccc(N2CCN(C(=O)Cc3cn(C)c4ccccc34)CC2)c1C,"inconclusive: 7.08 µM [fluorescent, side channel, single point]",–
CCS(=O)(=O)c1ccc(C(=O)Nc2cccc(Cl)c2)c(Cl)c1Cl,"inconclusive: 12.6 µM [quencher, side channel, partial curve]",–
O=C(O)c1ccc2cccc(Cl)c2c1O,"inconclusive: 25.1 µM [quencher, side channel, single point]",–
O=C(CN1CCN(S(=O)(=O)c2ccc(Br)cc2)CC1)Nc1ccc(F)cc1F,–,inactive: -11.3%
CC1CC=CC2C1C(=O)N(Cc1ccccc1)C2c1ccc2ccccc2c1-c1ccc(N(C)C)cc1 (stereo not drawn),"inconclusive: 11.2 µM [inhibitor, partial curve, poor fit]",–
CCNC(=S)N(Cc1ccco1)Cc1cc2cc3c(cc2[nH]c1=O)OCCO3,–,inactive: -6.31%
COCCn1cc(C(=O)N2CCC(C)CC2)c2c3ccccc3n(C)c2c1=O,"inconclusive: 8.91 µM [inhibitor, single point]",–
CCOc1ccc(N(CC(=O)NC2CCCCC2)C(=O)CCC(=O)Nc2cc(C)ccn2)cc1,"inconclusive: 3.98 µM [inhibitor, partial curve]",–
COC1/C=C/OC2(C)Oc3c(C)c(O)c4c(O)c(c(/C=N/N5CCN(C)CC5)c(O)c4c3C2=O)NC(=O)/C(C)=C/C=C/C(C)C(O)C(C)C(O)C(C)C(OC(C)=O)C1C (stereo not drawn),"inconclusive: 10 µM [quencher, side channel, partial curve]",–
CCOC(=O)N1CCN([N+]([O-])=NOc2cc(O/N=[N+](\[O-])N(C)C)c([N+](=O)[O-])cc2[N+](=O)[O-])CC1,"inconclusive: 25.1 µM [quencher, side channel, single point]",–
O=C(CSc1nnnn1-c1ccccc1)Nc1ncc(Cc2cccc(Cl)c2Cl)s1,"inconclusive: 6.31 µM [fluorescent, side channel, single point]",–
COc1ccc(-c2nn(C)c3sc(C(=O)N4CCOCC4)cc23)cc1OC,"inconclusive: 2 µM [inhibitor, full curve, poor fit]",–
O=C1NC(c2ccccc2)=C(c2ccc3ccccc3n2)C(c2ccc(F)cc2)N1 (stereo not drawn),"inconclusive: 35.5 µM [fluorescent, side channel, partial curve]",–
Cc1ccccc1NC(=S)NCCC(c1ccccc1)c1ccccc1,–,inactive: 2.17%
CCOC(=O)c1oc2ccccc2c1NC(=O)CN1CCN(C)CC1,–,inactive: -1.34%
S=C(Nc1ccc(Cl)cc1)c1nc2ccccc2[nH]1,"inconclusive: 22.4 µM [quencher, side channel, partial curve]",–

Compound,Potency,"FP activity change, negative = inhibition"
O=C(NC(=O)c1ccncc1)NC(c1ccccc1)c1ccccc1,"inconclusive: 14.1 µM [inhibitor, partial curve]",–
CCCCc1cc2c(cn1)C(=O)C(C)(OC(C)=O)C(=O)C2 (stereo not drawn),–,inactive: 0.254% [at 11.7 µM]
O=C(NC1CCCCC1)c1cc(-c2cccs2)on1,"inconclusive: 39.8 µM [fluorescent, side channel, single point]",–
CCc1ccc(NC(=O)Cn2ccn(-c3cccc(Cl)c3)c(=O)c2=O)cc1,"inconclusive: 25.1 µM [fluorescent, side channel, single point]",–
Cc1c(C(=O)N2CCCC(C)C2)sc2ncnc(N3CCCCC3C)c12 (stereo not drawn),"inconclusive: 5.01 µM [fluorescent, side channel, partial curve]",–
O=[N+]([O-])c1ccc(N/N=C/c2c[nH]c3ccccc23)cc1,"inconclusive: 7.08 µM [quencher, side channel, partial curve]",–
COc1ccccc1C(=O)NC(=S)Nc1ccc(NC(=O)c2cccs2)cc1,"inconclusive: 25.1 µM [inhibitor, single point]",–
CC1CCCN(CCOc2ccc3ccccc3c2Br)C1 (stereo not drawn),"inconclusive: 14.1 µM [fluorescent, side channel, partial curve]",–
Cc1ccc(N=Cc2sc(O)c3ccccc23)cc1,"inconclusive: 20 µM [quencher, side channel, partial curve]",–
CC(C)CCN1C(=O)c2ccc(C(=O)Nc3ccccc3C(=O)O)cc2C1=O,"inconclusive: 12.6 µM [quencher, side channel, partial curve]",–
O=C(O)CCC(=O)Nc1ccccc1C(=O)NCCc1ccccc1,–,inactive: 6.57%
CCOC(=O)[C@H]1[C@H]2COc3cc(OC)ccc3[C@@H]2N2C(=O)N(c3ccc(Br)cc3)C(=O)[C@@]12C,–,inactive: 2.14%
COc1ccc(C(=O)/C=C/C(=O)N(CC(=O)NC2CCCCC2)Cc2ccccc2OC)c(O)c1,"inconclusive: 2.82 µM [fluorescent, side channel, full curve]",–
O=C(COc1ncnc2c(Cl)cc(Cl)cc12)Nc1cc([N+](=O)[O-])ccc1Cl,"inconclusive: 25.1 µM [quencher, side channel, partial curve]",–
COc1cc2c(cc1OC)CN(C(=S)Nc1ccccc1)CC2,"inconclusive: 8.91 µM [inhibitor, single point]",–
COc1ccc(-c2ccc(S(=O)(=O)n3nc(OC(=O)c4cccs4)cc3N)cc2)cc1,"inconclusive: 39.8 µM [fluorescent, partial curve, poor fit]",–
CCOC(=O)C1CCN(S(=O)(=O)c2ccc(Cl)cc2OC)CC1,–,inactive: -5.63%
O=C(N/N=C/c1cccc(OC2CSC2)c1)c1ccccc1O,"inconclusive: 12.6 µM [quencher, side channel, partial curve]",–
